# The supplement of paper PMC11417369
# The list shows a part of the results.
# Test system: PF3D7_0420300 AP2 domain 1 (GST-tagged)
# Test: gcPBM binding intensity (ln(normalized median fluorescence intensity)); higher = stronger DNA binding
# Method in brief: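 An Agilent 4 × 180k array of primer-extended double-stranded 36-bp intergenic genomic probes, with negative controls, was incubated for 1 h with GST-tagged P. falciparum DNA-binding domains expressed in E. coli. Alexa488 anti-GST antibody detected bound protein, scanned at 488 nm. Binding intensity is the highest Masliner-normalised natural-log median intensity across replicate spots of either probe orientation.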
row,Sequence,gcPBM binding intensity (ln)
1,TCTAATACACAATGTTGTACATATTAATATATATGT [XGTACX_site2931],9.34
2,ATCATTCTTAAACCGTGTACTTATTATTTTTTTTTT [XGTACX_site2798],9.63
3,AAATGACTATATAAAAGTACTAGAAAGTATAAATAT [XGTACX_site944],9.41
4,AAAATACACGATAGTTGTACATTAAATGTATACAAT [XGTACX_site360],9.46
5,CATCCGTTGATATATGCATGCATATTGTTATTACCA [TGCATGCA_site868],9.46
6,TTCCTTTGTTGTCGTTGTACTTATATGGTTATAATT [XGTACX_site3082],9.81
7,TATACATAAAAAAATTTTACCAGGTTAATACAAATA [CACACA_negctrl_site1171],9.25
8,TACCTTATGTTATATACACACATATAACATAATATA [CACACA_site6741],9.5
9,ATATATATATATAGTAGTACTCTCTCTGTATATATA [XGTACX_site3754],9.08
10,ATTTAGAAAAATAAAACACACATATATCTGTAAATA [CACACA_site6119],9.46
11,TGTTACATAAAATGCACACTTTCAAATATGCTAATA [CACACA_site2925],9.05
12,TATAAGCTAAGTTGTTGTACAAAAAGGAAAAGTATA [XGTACX_site3741],9.49
13,AAAAAAATCTCCAGTGTGCACAATCACATAATATAT [GTGCAC_site9833],9.67
14,GAGATAAAATAAAACACACACATATATATATAGAAT [CACACA_site2197],10.1
15,TTTTCTTTTAAGTTTGTTTTACACTTTTTATTTTGA [CACACA_negctrl_site1581],9.36
16,TATACGTATTTTATATGTACACATATACATATTTAT [XGTACX_site5301],9.29
17,AATATATGGTTTCATGATATTAAATTCAATTTAATG [GTGCAC_negctrl_site370],8.99
18,AAATATAAATATACTCGTACATATATATATATATAT [XGTACX_site6940],9.22
19,ACTATATTTCATAACAGTACATATTCCTGAAACATC [XGTACX_site4924],9.19
20,ACAATATAAAAAAATTGTACATAATATATAATATTA [XGTACX_site1040],9.1
21,CATGCTTATATGTGCACACACAAAAGAAAAGAAAAA [CACACA_site1655],9.62
22,GATATATTACTTAAAATACACACCATGGAAAAGTTT [CACACA_site2606],9.4
23,GAATATGTTAACATTTGTACATAAAATTTTTTACAA [XGTACX_site2444],8.93

row,Sequence,gcPBM binding intensity (ln)
1,ATGTTTAAATTTTTCAGTACATATATTCTAGTAAAA [XGTACX_site1010],9.11
2,AATATATATATATATCCACACACATACATATATTAA [CACACA_site7907],9.7
3,ATGGTTTTTATTTTATGTACTTACTAAAATGAATAA [XGTACX_site4317],9.23
4,TACATAAAAATATATGCATGTTCTTATTTAATAAAA [TGCATGCA_site743],8.84
5,AAAATATTATTACAGAAACAAAAAGAAAAATATATA [GTGCAC_negctrl_site285],9.44
6,ATATGTAAAATATGGTGTACAATCAAATAAAAAAAA [XGTACX_site6270],9.49
7,ATTAATATATTTACCACACACCCATTTCGATTTTAT [CACACA_site3605],9.73
8,TATTTTATTTTTTGTTGTACATATATATTATATATA [XGTACX_site4513],9.46
9,CATATAAAAGGACACACACACACATATATATATATA [CACACA_site4674],10
10,TTTATTTTATCATTTGCACACGCACGCCCACATAAA [CACACA_site353],9.4
11,CAAAATATATTGAATTGTACATAAAAATAAAAATTA [XGTACX_site4193],9.19
12,AGCAGTCAGCAGGACAGTACACAGTAGCCAGTAACT [XGTACX_site1999],9.11
13,ATAAAATAAATATAACCACACACGAAAGAGAGAGAA [CACACA_site9075],10.1
14,TTTTTAGGAAAGGCGGCACACATTTATATATTTATT [CACACA_site3672],9.38
15,TTCCAACCAATACAAACATGCATTTGAAAAAATGTA [TGCATGCA_site119],9.1
16,TTCGCCCTAAATAGAGTGCATTATATATATTAATAT,9.27
17,ATACATTCTTATTACTGTACAGGGTTAATTATTTGT [XGTACX_site948],9.47
18,TGGAGATAAAATAAAACACACACATATATATATATA [CACACA_site8683],9.72
19,ATTATTTTATTTATTGGTACGTAATTGTAGATTTCT [XGTACX_site3697],9.27
20,GCAAAAACAAACGTCACACATACAAAGGCCGTGTAA [CACACA_site6043],9.33
21,TCCACACAATTTATAACATGCAAAAAGGCAATAATA [TGCATGCA_site773],9.13
22,TAGGTATATAAATAATGTACATATAAACTATATAGA [XGTACX_site2597],9.44
23,ATGTTGAGTATATATACACACATACAGATATATATA [CACACA_site4967],9.52

row,Sequence,gcPBM binding intensity (ln)
1,ATTTTTTTGGAATTCACACACAAAAAAAAAAATAAA [CACACA_site2081],9.39
2,AATTAGACATAATATACACACATATATTATATATAT [CACACA_site2691],9.54
3,TTCAAAAGATATATCGTGCACATATATATGATGAAA,9.21
4,CACATTTAGAAATAGTTTTATTTTGTATATTCTATT [CACACA_negctrl_site1382],9.29
5,TATACATTTATGTACACACACATATCTGTATATTTA [CACACA_site5617],9.64
6,GTATGTGTATGTGTATGTACATATGTATGTATAAAA [XGTACX_site8191],9.37
7,TTTTGTATATATCACATTAAAAGAAAAAAATATATG [GTGCAC_negctrl_site120],9
8,TATATATATTTCCAGTGTACTTATTTTTTAATCAAT [XGTACX_site8220],9.42
9,TCCTCAAAAAAATAAAATAATTTATACTTTTTTAAA [GTGCAC_negctrl_site724],8.68
10,TTCTCAAAGAAGAAAAAGTTTTTTTAATTTTTCTTT [XGTACX_negctrl_site543],8.67
11,AATAAAAAATATAACACAAATATGTATATATATATA [TGCATGCA_negctrl_site245],9.19
12,ACATATAAAATGTATACACACAAATATTACATATAT [CACACA_site1472],9.59
13,CAAAAAAAAAAAAAAAATAAATAAAGGAAATAAAAA [CACACA_negctrl_site20],9.05
14,AACCAATTATATTTACGTACGTACGGTTTTTTATAT [XGTACX_site1291],9.72
15,ATATATTAATATACTCGTACATATTCTTATTGTGTA [XGTACX_site3728],9.36
16,AATATATTTTTTTTTTGTACATATTGTAAAATAATA [XGTACX_site6805],9.09
17,GTGTAGTTAAAAAAAAGTACAGATTTTTTTTTTTTT [XGTACX_site849],8.99
18,ATAGAATATTGATATTGTACGTTATCTTAAAACAAT [XGTACX_site1702],9.09
19,AAAAAAAAAAAAACAAGTACAAAGGATAGAAAAAAA [XGTACX_site4133],9.61
20,ATAAGAACGTCTATGTGTACGCAGCAAAACTGAGTT [XGTACX_site6385],9.25
21,TTGTATTACATAAATGTTCTTTATTATTTGATAAAA [CACACA_negctrl_site903],8.78
22,TATATAATATATTAATGTACTTAAAATATATTCTAT [XGTACX_site1235],9.07
23,TAAAATATATTGCCAGTGCATAATATATGTAATTAT,9.22

row,Sequence,gcPBM binding intensity (ln)
1,TTTTTTAAATATTAAAAATGGGATCTTATAACATAT [GTGCAC_negctrl_site666],8.76
2,TGTATAAACCCACGTACACACACTAAGTATATCCAA [CACACA_site1605],9.67
3,TAAACAAATAAATAAACACACAATATAGGTATATAT [CACACA_site7739],9.72
4,AACTAATAAAAAAAAAAAACATTAAACAGGACAAAT [XGTACX_negctrl_site287],9.78
5,TTATTTTTAACGTACGCACACATATAAATATATTTA [CACACA_site1976],9.43
6,TTGTTTTTAGTTTATACACACCATATTAAAATAATG [CACACA_site5675],9.36
7,AATAAAATATACTATTGTACATATGGAACTACTTGA [XGTACX_site8928],9.41
8,ATTTATTATATATAGTGTACGTTCTTAATTATAATT [XGTACX_site7480],9.4
9,TTATAAAAATACAGTTAACACACATGTGTATATATA [CACACA_site9257],9.48
10,GATCGCATGAAATGAACACACATAAAAAAAATATAC [CACACA_site4087],9.51
11,AAAAAAAAAATATACACACACACATACCCATAAATA [CACACA_site5981],9.99
12,AAAATAATCTTATGCACACCAAAAATTTATATAATC [CACACA_site1235],9.43
13,TAATGCAACATTTATGTGCACATAAATATTTTTTAA,9.02
14,AAAACACAATTTATTACACACATATATTATAGATTA [CACACA_site6780],9.68
15,TTTATTTTAAATTTACGTACATAATTAATCATATTT [XGTACX_site7529],9.23
16,ATAAAAAATTAGGACTGTACATAATTTTTGTGATTT [XGTACX_site2857],9.23
17,TATATATATAAGGATAGTACATATATTTATATGATT [XGTACX_site4954],9.19
18,GTATAATAAATGATAGCACACATATGTACTTATATA [CACACA_site8188],9.4
19,AAAATTATAAAATGGGCACACATGAATATTGTAGTA [CACACA_site5261],9.62
20,ATGAAATTTATATCATGTACATACAAGAGAAAAAAA [XGTACX_site3326],9.32
